Drawing on PubChem BioAssay AID1240 (Sanford-Burnham Center for Chemical Genomics, 2008), this text covers displacement for 71 compounds.

The whole screen tested about 50,000 compounds, of which about 800 (1.6%) showed an effect of 50% or more. The list shows a part of the results.

The assay addresses Bcl-2-like protein 10 (Homo sapiens) (UniProt Q9HD36). The experiment in a line: TR3 peptide-Bcl-B binding displacers, biochemical primary FP assay, phenotype converters (AID 1240).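 Also: 0% = Bcl-B with tracer peptide and DMSO and 100% = tracer peptide lacking Bcl-B.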 To be noted: GST-Bcl-B / FITC-TR3 peptide fluorescence polarization; stronger effect = higher value; compound at 3.75 mg/L. Background: In fluorescence polarisation assays a small probe gives low polarisation when free and higher when bound to something large.
Chain of UniProt Q9HD36 (Q9HD36 whole entry, looked up): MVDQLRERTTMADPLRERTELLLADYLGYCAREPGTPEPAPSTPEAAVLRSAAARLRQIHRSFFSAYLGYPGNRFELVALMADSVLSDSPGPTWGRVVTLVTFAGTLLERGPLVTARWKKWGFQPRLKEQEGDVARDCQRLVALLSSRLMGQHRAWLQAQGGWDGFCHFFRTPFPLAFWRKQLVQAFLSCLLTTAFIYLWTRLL
Regarding `COc1ccc(S(=O)(=O)n2cnc(C)c2)cc1`, the displacement came to 14.9%.

For `CC(C)(C)c1ccc(-c2nnc(N)s2)cc1`, the displacement is -11.5%.

As for `CCOC(=O)c1ccccc1NC(=O)c1cccc([N+](=O)[O-])c1`, the displacement turned out to be 15%.

As to `Cc1cccc(C(=O)Nc2ccc(OC(F)(F)F)cc2)c1`, the displacement worked out at 14.3%.

Turning to `Fc1cccc(Nc2cc(-n3cccn3)ncn2)c1`, the displacement is -10.3%.

Take `Cc1ccc(S(=O)(=O)NC(C)C2C3CC4CC(C3)CC2C4)cc1` (stereo unspecified): the displacement worked out at 6.9%.

As to `NS(=O)(=O)c1cccc(NC(=O)c2ccccc2I)c1`, the displacement is 4.5%.

As to `CCOc1ccc(-c2cc(C(=O)O)c3ccccc3n2)c(OCC)c1`, the displacement is -5.8%.

In the case of `COc1ccc(-c2ccc(C3NC(=O)c4c(sc5c4CCN(C)C5)N3)o2)cc1Cl` (stereo unspecified), the displacement was found to be 4.1%.

Turning to `O=c1[nH]nc(SCc2c(F)cccc2Cl)c(=O)[nH]1`, the displacement was -11%.

As for `CCOC(=O)c1ccc2[nH]cc(C(=O)OCC)c(=O)c2c1`, the displacement worked out at 1.6%.

Consider `COc1ccc(C(=O)Nc2cc(C)cc(C)n2)cc1`, for which the displacement came out at 13.1%.

As to `COC(=O)C1=CNC=C(C(=O)OC)C1c1cc(OC)c(OC)c(OC)c1`, the displacement came to 1.8%.

Turning to `CCOc1ccc(NC(=O)c2ccc(Cl)c([N+](=O)[O-])c2)cc1`, the displacement amounted to 8.9%.

As to `O=C(Nc1ccc(I)cc1Cl)c1cc2ccccc2oc1=O`, the displacement was -13.9%.

As for `Cc1oc(C(=O)O)cc1COc1ccc(-c2ccccc2)cc1`, the displacement was 11.6%.

Turning to `CCOc1ccccc1NC(=O)CN(c1cccc(C(F)(F)F)c1)S(C)(=O)=O`, the displacement is 0.7%.

Turning to `COCCCNC(=O)CC(=O)N/N=C/c1cccc(OC)c1OC`, the displacement was 11.3%.

On to `COc1cccc(/C=C2\SC(=S)N(Cc3ccccc3)C2=O)c1O`, for which the displacement came to 0%.

In the case of `O=C(N=Nc1c(O)[nH]c2c(Br)cc(Br)cc12)C(O)c1ccccc1` (stereo unspecified), the displacement worked out at 2.1%.

As to `CCN(CC)Cc1c(O)ccc2c(=O)c(Oc3ccccc3Br)coc12`, the displacement is -4.6%.

As for `CCOC(=O)CN1C(c2cc(OC)c(OC)c(OC)c2)=Nc2ccc(Br)cc2C1c1ccccc1` (stereo unspecified), the displacement is -8.8%.

Turning to `C=CCc1cccc2cc(C(=O)Nc3cc(OC)ccc3OC)c(=O)oc12`, the displacement stood at 2%.

Regarding `O=C1C=C(Nc2ccccc2)C(=O)N1Cc1ccccc1`, the displacement came out at 12.4%.

As for `COc1ccc(N2C(=O)NC(=O)/C(=C/c3ccc(Sc4ccc(C)cc4)o3)C2=O)cc1`, the displacement worked out at 125%.

Turning to `Cc1sc(NC(=O)c2ccc([N+](=O)[O-])cc2Cl)nc1-c1ccccc1`, the displacement is -4%.

For `O=C(CSc1nnc(-c2ccco2)n1-c1ccccc1)NCc1ccco1`, the displacement came out at 1.8%.

As to `O=C(Cc1ccc(Cl)cc1)Nc1cc(Cl)c(Cl)cc1Cl`, the displacement stood at 0.6%.

In the case of `CCOc1ccc2nc(NC(=O)c3ccccc3[N+](=O)[O-])sc2c1`, the displacement was -6.9%.

Regarding `O=C(Nc1ccc(S(=O)(=O)Nc2ncccn2)cc1)c1ccco1`, the displacement stood at 0.6%.

`O=C1NC(=O)C(=Cc2cccc(OS(=O)(=O)c3ccc([N+](=O)[O-])cc3)c2)C(=O)N1`: the displacement was -1.7%.

Regarding `CN(C)c1ccc(/C=N/N2C(=O)c3cccc4cccc(c34)C2=O)cc1`, the displacement was -10.7%.

For the compound `NC(=O)CSc1nc2ccccc2n1CCOc1ccc(Cl)cc1`, the displacement was 8.4%.

On to `O=C(O)c1ccccc1-c1ccccc1C(=O)N(Cc1ccccc1)c1ccccc1`, for which the displacement is -5.1%.

For the compound `CCP(=O)(CC)C(C)(C)CP(=O)(c1ccccc1)c1ccccc1`, the displacement was 14.6%.

With `Cc1c(C(=O)Nc2cccc(-c3nc4ccccc4o3)c2)cccc1[N+](=O)[O-]`, the displacement was -3.2%.

`N#C/C(=C\c1ccc(-c2ccccc2)o1)C(=O)Nc1ccc(C#N)cc1`: the displacement worked out at 168%.

Consider `Fc1ccccc1C=NN1CCN(c2ccccn2)CC1`, for which the displacement is -5.3%.

`CCOC(=O)C1=C(N)c2ccccc2CC1(C)C1CCCCC1` (stereo unspecified): the displacement is -15.9%.

`O=C(NCCN1CCNCC1)C(=O)NCc1ccco1`: the displacement is 1.8%.

Take `N/C(=N\OC(=O)c1ccccc1Br)c1ccccc1`: the displacement was -12.2%.

Turning to `COc1ccc(C2CC(=O)C3=C(C2)Nc2ccccc2NC3c2ccncc2)cc1OC` (stereo unspecified), the displacement was -5.8%.

On to `COc1ccc(COC(=O)C2=C(C)NC3=C(C(=O)CC(C)(C)C3)C2c2ccc(Cl)c([N+](=O)[O-])c2)cc1` (stereo unspecified), for which the displacement was found to be 3.9%.

As to `CCOC(=O)c1ccc(NC(=O)Cc2ccc(Br)cc2)cc1`, the displacement worked out at 6.9%.

As for `COc1ccc(-c2nnc(-c3sc4ccccc4c3Cl)o2)cc1`, the displacement amounted to 6.3%.

In the case of `O=C(COc1ccc([N+](=O)[O-])cc1)Nc1cccc2nsnc12`, the displacement amounted to 13.9%.

Consider `CCN1C(=O)/C(=C/c2ccc(OC(=O)c3ccccc3I)c(OC)c2)SC1=S`, for which the displacement was -4.2%.

`Cc1ccc2nc(-c3cc(N=C/C=C/c4ccc(Cl)cc4)ccc3O)oc2c1`: the displacement stood at 1.8%.

With `CCc1ccc(-c2cc(C(=O)NC(C)C)c3ccccc3n2)cc1`, the displacement is -10.9%.

In the case of `O=C(/C=C/c1cccc(C(F)(F)F)c1)Nc1cccc2ncccc12`, the displacement worked out at 14.9%.

For the compound `O=C1NC(=Nc2cccc(O)c2)S/C1=C\c1cccc(O)c1`, the displacement amounted to 1.9%.

With `CCOC(=O)c1sc(NC(=O)c2ccc(Br)o2)nc1C`, the displacement was -10.7%.

For `O=C(Nc1cccnc1)c1cccc2c(Br)cccc12`, the displacement came out at 0.8%.

As for `Cc1ccsc1-c1ncnn1-c1ccc(Cl)cc1`, the displacement worked out at 15%.

For the compound `CC(C)C1=NN2C(=N)/C(=C/c3ccc(-c4ccc(F)c(Cl)c4)o3)C(=O)N=C2S1`, the displacement came out at 146%.

On to `CCOc1cccc(-c2cc(C(=O)NN)[nH]n2)c1`, for which the displacement was -18.6%.

For `O=C(O)c1cccc(NC(=O)c2cc(S(=O)(=O)N(CCO)CCO)ccc2Cl)c1`, the displacement was -12.3%.

`Cc1ccc(NC(=O)COc2ccc(C(C)(C)C)cc2)c([N+](=O)[O-])c1`: the displacement came out at 4.5%.

As for `Cc1ccc(S(=O)(=O)N/N=C2/CCCc3c2[nH]c2ccccc32)cc1`, the displacement was -7.7%.

Turning to `COc1ccc(-c2cc(C(F)(F)F)n3nc(C(=O)OC(C)C)cc3n2)cc1OC`, the displacement was 1.6%.

`COc1cccc(N2C(=O)c3ccc(C(=O)Nc4ccccc4O)cc3C2=O)c1`: the displacement is -6.6%.

Take `COc1ccccc1CC(=O)NCc1ccccn1`: the displacement was -2.1%.

As to `Cc1ccc(C(C)C)c(OCC(=O)Nc2cccc(C)n2)c1`, the displacement stood at 6.2%.

For `O=C(O)c1cc(C23CC4CC(CC(C4)C2)C3)nc2ccccc12`, the displacement was -6%.

Turning to `CCOC(=O)CC(O)(c1ccccc1)C(F)(F)C(F)F` (stereo unspecified), the displacement was found to be 15.4%.

Turning to `COc1ccc(C2=NN(c3ccccc3)C(c3ccccc3F)C2)cc1` (stereo unspecified), the displacement worked out at 53.9%.

For the compound `C/C(Nc1ccc2c(c1)OCO2)=C(/C#N)C(N)=O`, the displacement stood at 15.6%.

`CC(=O)Oc1ccccc1/C=C1\CCOC1=O`: the displacement is 3.3%.

As to `Nc1ccc(S(=O)(=O)Nc2cccc3cccnc23)cc1`, the displacement was determined as 13%.

With `Cc1ccccc1C1(Cc2ccccc2)C(=O)c2ccccc2C1=O`, the displacement was 14.4%.

`O=C(O)c1nc(N2C(=O)c3ccccc3C2=O)n[nH]1`: the displacement is -8.4%.
